By IC50 is meant the dose at which the fit gives 50% viability; fits outside the tested doses are given as limits. AUC is the area under the same curve over the 256-fold range up to the top dose, as a fraction; the more sensitive the line, the further below 1. For some of these results: The top dose, if marked as inferred, was calculated from the reported fits. For some of these results: Drugs with an entry number were screened twice under separate entries, and the two screens often disagree.
Tests used:
Experiment in all cases: Viability of human cancer cell lines after 72 h of drug (GDSC screen)
Y-39983 = compound: C[C@@H](N)c1ccc(C(=O)Nc2ccnc3[nH]ccc23)cc1 [Y-39983]; conditions: top dose 20 µM; top dose inferred
Method: (§1)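 Human cancer cell lines in 384-well plates, medium with 10% serum, drug for 72 h over a 256-fold dose range (nine 2-fold or five 4-fold steps up to the top dose). Adherent lines were fixed and stained with the nucleic acid dye Syto60, suspension lines read with resazurin; signal relative to control wells, capped at 0 and 100%. One two-parameter sigmoid per drug and line, fitted in a mixed model over all curves with the slope shared within a line.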

TPCA-1 = compound: NC(=O)Nc1sc(-c2ccc(F)cc2)cc1C(N)=O [TPCA-1]; conditions: top dose 20 µM
Method: as §1

Epothilone B = compound: C/C(=C\c1csc(C)n1)[C@@H]1C[C@@H]2O[C@]2(C)CCC[C@H](C)[C@H](O)[C@@H](C)C(=O)C(C)(C)[C@@H](O)CC(=O)O1 [Epothilone B]; conditions: top dose 0.032 µM; top dose inferred
Method: as §1

PHA-793887 = compound: CC(C)CC(=O)Nc1n[nH]c2c1CN(C(=O)C1CCN(C)CC1)C2(C)C [PHA-793887]; conditions: top dose 10.24 µM
Method: as §1

PLX4720 = compound: CCCS(=O)(=O)Nc1ccc(F)c(C(=O)c2c[nH]c3ncc(Cl)cc23)c1F [PLX4720]; conditions: top dose 10 µM
Method: as §1

[1] = screen: GDSC drug entry 1371, top dose inferred

Row | Cell Line | AUC (Y-39983) | IC50 (Y-39983) [µM] | AUC (TPCA-1) | IC50 (TPCA-1) [µM] | AUC (Epothilone B) | IC50 (Epothilone B) [µM] | AUC (PHA-793887) | IC50 (PHA-793887) [µM] | AUC (PLX4720; screen: GDSC drug entry 1036) | IC50 (PLX4720; screen: GDSC drug entry 1036) [µM] | AUC (PLX4720; [1]) | IC50 (PLX4720; [1]) [µM]
1 | SK-LU-1 (lung adenocarcinoma, adherent) | 0.958 | > 20 | 0.836 | 18.7 | 0.546 | 0.00276 | 0.892 | > 10.2 | 0.887 | > 10 | 0.915 | > 10
2 | SK-MEL-3 (melanoma, adherent) | 0.984 | > 20 | 0.791 | 10.6 | 0.749 | 0.0118 | 0.955 | > 10.2 | 0.781 | 4.85 | 0.766 | 4.24
3 | SK-MEL-24 (melanoma, adherent) | 0.96 | > 20 | 0.741 | 7.22 | 0.962 | > 0.032 | 0.983 | > 10.2 | – | – | 0.649 | 1.77
4 | SK-MEL-28 (melanoma, adherent) | 0.981 | > 20 | 0.966 | > 20 | 0.971 | > 0.032 | 0.953 | > 10.2 | 0.538 | 0.794 | 0.661 | 1.74
5 | SK-MEL-30 (melanoma, adherent) | 0.96 | > 20 | 0.927 | > 20 | 0.446 | 0.00141 | 0.785 | 4.64 | 0.947 | > 10 | 0.981 | > 10
6 | SK-MES-1 (lung squamous cell carcinoma, adherent) | 0.984 | > 20 | 0.844 | 16.2 | 0.458 | 0.00152 | 0.843 | 8.23 | 0.905 | > 10 | 0.912 | > 10
7 | SK-N-AS (neuroblastoma, adherent) | 0.983 | > 20 | 0.889 | > 20 | 0.979 | > 0.032 | 0.85 | 9.66 | 0.979 | > 10 | 0.982 | > 10
8 | SK-N-SH (neuroblastoma, adherent) | 0.981 | > 20 | 0.845 | 14.2 | 0.525 | 0.00234 | 0.987 | > 10.2 | 0.985 | > 10 | 0.979 | > 10
9 | SK-OV-3 (ovary, adherent) | 0.883 | > 20 | 0.767 | 9.29 | 0.583 | 0.00359 | 0.814 | 7.44 | 0.975 | > 10 | 0.962 | > 10
10 | SKG-IIIa (cervix, adherent) | 0.983 | > 20 | 0.98 | > 20 | 0.846 | > 0.032 | 0.983 | > 10.2 | 0.961 | > 10 | 0.977 | > 10
11 | SKN (uterus, adherent) | 0.875 | > 20 | 0.975 | > 20 | 0.684 | 0.00734 | 0.917 | > 10.2 | 0.884 | > 10 | 0.919 | > 10

From the supplement of paper PMC4967469
